# Results as given in PubChem BioAssay AID1745853 (National Center for Advancing Translational Sciences (NCATS), 2022).
# This is one part of the list. These are further read-outs of the screen, such as a control signal, another cell line or another target. No call is given for them.
# Experiments:
# Test in all cases: Primary Screen for Target Class Profiling of Small Molecule Inhibitors of Methyltransferases
# [1] = target: Glycine N-methyltransferase (Homo sapiens) (UniProt Q14749); conditions: purified enzyme, MTase-Glo SAH luminescence; measured here: GNMT inhibition; at 40 µM; stronger effect = lower value
# Procedure, shortened: (§1)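 Each enzyme was assayed with SAM and its substrate. SAH formation detected by MTase-Glo luminescence; single-point 40 uM screen[…].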
# [2] = target: Guanidinoacetate N-methyltransferase (Homo sapiens) (UniProt Q14353); conditions: purified enzyme, MTase-Glo SAH luminescence; measured here: GAMT inhibition; at 40 µM; stronger effect = lower value
# Procedure, shortened: as §1
# [3] = target: Histamine N-methyltransferase (Homo sapiens) (UniProt P50135); conditions: purified enzyme, MTase-Glo SAH luminescence; measured here: HNMT inhibition; at 40 µM; stronger effect = lower value
# Procedure, shortened: as §1
# [4] = target: Nicotinamide N-methyltransferase (Homo sapiens) (UniProt P40261); conditions: purified enzyme, MTase-Glo SAH luminescence; measured here: NNMT inhibition; at 40 µM; stronger effect = lower value
# Procedure, shortened: as §1
# [5] = target: Phenylethanolamine N-methyltransferase (Homo sapiens) (UniProt P11086); conditions: purified enzyme, MTase-Glo SAH luminescence; measured here: PNMT inhibition; at 40 µM; stronger effect = lower value
# Procedure, shortened: as §1
# On the % scale 0 is the no-effect control and ±100 the full control effect.
Structure (SMILES),"activity change, negative = inhibition [1] [%]","activity change, negative = inhibition [2] [%]","activity change, negative = inhibition [3] [%]","activity change, negative = inhibition [4] [%]","activity change, negative = inhibition [5] [%]"
c1ccc(OCCNc2nc(-c3cccnc3)nc3c2CCNCC3)cc1,-10.9,-2.6,-15.8,-7.46,-3.93
COc1cc(OC)c(NS(=O)(=O)c2ccc3c(c2)n(C)c(=O)n3C)cc1Cl,-5.2,2.5,-0.17,-0.887,-3.27
COc1ccc(OC2CCN(C(C)=O)CC2)c(C(=O)NCCc2ccccc2OC)c1,-2.46,0.484,-1.99,-3.25,0.924
O=C(Cn1c(=O)c2ccc(Cl)cc2n2nncc12)NCc1ccc2c(c1)OCO2,-5.71,1.24,8.19,-3.94,-1.92
CCC(O)C1CCN(C(=O)c2cnn3cc(CN(CC)CC)cnc23)CC1 (stereo not given),-5.28,-14.2,-10.6,-17.7,-19.6
CCOc1ccc(C2c3cccn3-c3sc4c(c3CN2C(=O)Nc2ccc(C(=O)OC)cc2)CCCC4)cc1 (stereo not given),2.01,2.67,3.79,1.88,6.36
CC1OC(OC2C(O)COC(O[C@@H]3[C@@H](O)[C@@H](O)[C@H](OC4C(OC(=O)[C@]56CCC(C)(C)CC5C5=CCC7[C@@]8(C)C[C@H](O)[C@H](OC9OC(CO)C(O)C(O)C9O)[C@@](C)(CO)C8[C@H](O)C[C@@]7(C)[C@]5(C)CC6)OCC(O)C4O)O[C@H]3C)C2O)C(O)C(O)C1O (stereo not given in full),-0.124,-0.216,5.41,-9.63,-6.1
COc1ccc([C@@H]2CN(c3nnnn3-c3ccccc3)C[C@H]2NC(C)=O)cc1,0.215,2.28,1.16,-10.1,13.9
CC1(C(=O)NC2CCCCCC2)Cn2c(cc3occc32)C(=O)N1Cc1cccnc1 (stereo not given),1.9,0,7.16,3.57,3.56
COc1cc(Nc2nc3ccccc3nc2NS(=O)(=O)c2cccc(NC(=O)c3ccc(C)c(OC)c3)c2)cc(OC)c1,-4.89,-16.9,-1.35,-45.5,-12.6
CCCSCCCN1C(=O)c2cc3sccc3n2CC1(C)C(=O)NC1CCCCC1 (stereo not given),0.187,5.15,-0.116,1.5,-0.055
COc1cc2c(cc1OC)CN(CCc1ccc(NC(=O)c3cc(OC)c(OC)cc3NC(=O)c3cnc4ccccc4c3)cc1)CC2,-16.3,-3.61,-12.2,-13.5,0.039
COC(=O)c1cc2n(n1)CC(C)(C(=O)NC1CCC(C)CC1)N(c1cc(C)ccc1C)C2=O (stereo not given),-2.36,6.31,-2.83,4.98,2.26
O=C(CCn1ccc2cc(S(=O)(=O)N3CCCCC3)ccc21)N1CCN(C(=O)c2ccco2)CC1,1.18,1.3,1.79,-2.37,-1.4
C/C1=C\CC[C@H](C)CCO[C@@H]2O[C@H](CO[C@@H]3OC[C@](O)(COC1=O)[C@H]3O)[C@@H](O)[C@H](O)[C@H]2O,5.13,2.69,9.55,-7.25,2.03
COc1ccc(CCN2C(=O)c3cc4ccccc4n3CC2(C)C(=O)NCc2ccccc2)cc1OC (stereo not given),-2.59,-0.286,0.914,-7.35,-2.48
COc1cccc(NC(=O)CSc2nnc3[nH]c(=O)c(C(C)(C)C)nn23)c1,-0.358,6.61,-3.66,-7.02,-6.46
CN(C(=O)c1ccc(F)cc1C(F)(F)F)C1CCN(c2nnc(-c3ccnn3C)c3ccccc23)CC1,-7.95,3.67,7.13,-23.8,-1.4

Structure (SMILES),"activity change, negative = inhibition [1] [%]","activity change, negative = inhibition [2] [%]","activity change, negative = inhibition [3] [%]","activity change, negative = inhibition [4] [%]","activity change, negative = inhibition [5] [%]"
Cc1ccc(NC(=O)C2N(C(C)C)C(=O)C23CCCCC3)cc1 (stereo not given),-3.85,-3.93,-0.902,-4.56,-4.19
CC(C)CCNC(=O)C1c2c(n(C)c3ccccc23)SCC(=O)N1CCC(C)C (stereo not given),6.91,3.88,-0.189,-8.97,0.521
O=C(CCn1ccc2cc(S(=O)(=O)N3CCCC3)ccc21)NC1CCCCC1,7.06,0,8.5,12.7,6.63
CC1(C)CC[C@]2(C(=O)O)CC[C@]3(C)C(=CCC4[C@@]5(C)CC[C@H](O[C@@H]6O[C@H](C(=O)O)[C@@H](O)[C@H](O)[C@H]6O)C(C)(C)C5CC[C@]43C)C2C1 (stereo not given in full),2.44,-0.468,5.29,-13.5,-4.83
CN1C(=O)c2cc(C(=O)NCc3ccccc3Br)nn2CC1(C)C(=O)NC1CCCC1 (stereo not given),3.25,5.09,-3.13,3.39,-1.03
O=C(Cn1c(=O)n2nc(-c3ccc(F)cc3)nc2c2ccccc21)N1CCN(c2ccc(F)cc2)CC1,15.2,0,11.8,9.69,7.56
Cc1noc([C@@H]2CN(Cc3ccc[nH]3)C[C@H]2CO)n1,-17.9,-9.3,-2.99,-4.53,-11.1
Cc1ccc(C(=O)N2CCC(C(=O)N3CCCCCCNC(=O)CC3)CC2)s1,-3.87,-9.3,-3.82,-11.9,-6.99
O=C1CN([S+](=O)([O-])c2ccc(F)cc2)CC(O)CN1Cc1cccs1 (stereo not given),-3.1,-0.555,-1.05,-10.4,-6.51
CC1(C(=O)NC2CCCCC2)Cn2c(cc3occc32)C(=O)N1CCCc1ccccc1 (stereo not given),-13.8,1.58,-5.41,-11.8,-9.05
NC(=O)C(=O)O,4.28,10.2,4.58,-3.63,2.64
COc1cc(Cc2cnc(N)nc2N)cc(OC)c1OC,-12.4,-2.65,-3.53,-12.9,-2.98
CC1CCC(N2C(=O)c3cc4sccc4n3CC2(C)C(=O)NC2CCCCC2)CC1 (stereo not given),-0.878,5.54,0.56,1.84,-2.35
CC(=O)N1CC2(CCCN(C3CCCCC3)C2)Cc2ccccc21 (stereo not given),-0.915,-1.54,-6.95,-3.92,-1.43
COc1cccc(Cn2nc3n(CC(C)C)c(=O)c4ccc(C(=O)NC5CCCC5)cc4n3c2=O)c1,4.5,2.1,7.19,7.22,3.81
CC1=CC(=O)CC(C)(CO[C@@H]2O[C@H](CO)[C@@H](O)[C@H](O)[C@H]2O)C1(O)/C=C/C(C)=C/C(=O)O (stereo not given in full),3.19,6.48,10.4,-22.2,8.98
COCc1nc(-c2ccc(OC3CN(C(=O)NCc4ccc(OC)cc4)C3)cc2)no1,-2.23,-1.72,-0.929,-1.68,-5.33
CC(C)(C)c1ccc(C(=O)NC(Cc2c[nH]c3ccccc23)C(=O)OCC(=O)c2ccccc2)cc1 (stereo not given),6.86,0,1.49,1.23,0.54
